“And” between values parts separate entries of the source, which are not always exact repeats. Equal entries are not always repeated. This list was built around the results that the source calls inconclusive (neither active nor inactive); the mix of calls is not that of the screen. Potencies of inconclusive entries are doubtful fits and often do not repeat. Some compounds were tested as several samples or in several runs, with calls that do not always agree. The source made the active and inactive calls. Unless noted, the call rests on the fitted dose curve; in most records, active means well fitted curve in the direction sought with a large enough effect in the repeat runs; inconclusive means weak or mixed curves; inactive means no such curve, though single readings can be large; an effect the other way counts as inactive or inconclusive.
Columns and labels:
[1] = qHTS assay for small molecule activators of the heat shock response signaling pathway - cell viability counter screen (AID 743209); conditions: HSE-bla HeLa viability, CellTiter-Glo luminescence, 5 h; activity change, negative = cytotoxicity: at 62.6 µM (top of the series) unless noted; further: nearly all actives have a fitted effect of over 50% in size
Summary of the method: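 To flag cytotoxic compounds, HSE-bla HeLa cells plated at 1500 cells/well were dosed for 5 h at 37 C, followed by the reporter FRET read and then CellTiter-Glo, with luminescence recorded 30 min after reagent addition.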

[2] = qHTS assay to identify small molecule antagonists of the peroxisome proliferator-activated receptor delta (PPARd) signaling pathway - cell viability counter screen (AID 743213); conditions: PPARd-bla HEK293H viability, CellTiter-Glo luminescence, 17 h; viability change, negative = cytotoxic: at 62 µM (top of the series) unless noted; further: nearly all actives have a fitted effect of over 50% in size
Summary of the method: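 CellTiter-Glo was added to PPARd-bla HEK293H wells following 17 h compound treatment in the presence of 300 nM L165041. Luminescence was recorded after 30 min at room temperature.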

[3] = qHTS assay for small molecule agonists of the antioxidant response element (ARE) signaling pathway (AID 743202; active means well fitted activation curve with a large enough effect in the signal ratio in the repeat runs, not every such curve was filed as active; inconclusive means weak or mixed curves, or effect the other way; inactive means no such curve, though single readings can be large or run the other way; the % refers to the signal ratio); conditions: HepG2 ARE-bla reporter, beta-lactamase FRET, 16 h; activation: at 73.3 µM (top of the series) unless noted
Summary of the method: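 HepG2 ARE-bla reporter line, 2,000 cells/well; 5 h preincubation 37 C/5% CO2; compound (DMSO) 16 h 37 C; B/G FRET substrate 2 h RT; fluorescence intensity.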

[4] = molecular target: Bile acid receptor (Homo sapiens) (UniProt Q96RI1); assay: qHTS assay to identify small molecule antagonists of the farnesoid-X-receptor (FXR) signaling pathway (AID 743217; active means well fitted inhibition curve with a large enough effect in the signal ratio in the repeat runs, not every such curve was filed as active; inconclusive means weak or mixed curves, or effect the other way; inactive means no such curve, though single readings can be large or run the other way; the % refers to the signal ratio); conditions: HEK293T FXR-UAS-bla, beta-lactamase ratio, CDCA-stimulated, 16 h; activity change, negative = inhibition: at 62.6 µM (top of the series) unless noted
UniProt Q96RI1, sequence (Q96RI1 whole entry, looked up): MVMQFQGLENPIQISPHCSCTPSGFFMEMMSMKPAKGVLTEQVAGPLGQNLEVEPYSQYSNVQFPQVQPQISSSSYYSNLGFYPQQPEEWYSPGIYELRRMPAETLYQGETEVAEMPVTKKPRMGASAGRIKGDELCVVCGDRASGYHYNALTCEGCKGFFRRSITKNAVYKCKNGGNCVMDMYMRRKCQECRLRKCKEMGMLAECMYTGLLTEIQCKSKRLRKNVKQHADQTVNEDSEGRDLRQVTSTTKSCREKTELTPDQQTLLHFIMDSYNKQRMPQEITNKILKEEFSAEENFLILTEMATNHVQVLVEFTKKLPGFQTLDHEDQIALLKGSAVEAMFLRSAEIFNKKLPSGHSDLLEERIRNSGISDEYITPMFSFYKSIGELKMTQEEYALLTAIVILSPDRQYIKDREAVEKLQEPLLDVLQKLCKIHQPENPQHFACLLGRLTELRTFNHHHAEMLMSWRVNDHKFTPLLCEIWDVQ
Summary of the method: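 Quantitative HTS, beta-lactamase reporter format: FXR-UAS-bla HEK 293T cells co-treated 16 h at 37 °C with compounds and 50 uM final chenodeoxycholic acid, then read by B/G FRET fluorescence.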

[5] = molecular target: Peroxisome proliferator-activated receptor delta (Homo sapiens) (UniProt Q03181); assay: qHTS assay to identify small molecule antagonists of the peroxisome proliferator-activated receptor delta (PPARd) signaling pathway (AID 743215; active means well fitted inhibition curve with a large enough effect in the signal ratio in the repeat runs, not every such curve was filed as active; inconclusive means weak or mixed curves, or effect the other way; inactive means no such curve, though single readings can be large or run the other way; the % refers to the signal ratio;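 further: cells stimulated with agonist L165041 at 300 nM final during compound exposure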); conditions: HEK293H PPARd-UAS-bla, beta-lactamase FRET ratio, antagonist, 17 h; ratio activity, negative = inhibition: at 62 µM (top of the series) unless noted
UniProt Q03181, sequence (Q03181 whole entry, looked up): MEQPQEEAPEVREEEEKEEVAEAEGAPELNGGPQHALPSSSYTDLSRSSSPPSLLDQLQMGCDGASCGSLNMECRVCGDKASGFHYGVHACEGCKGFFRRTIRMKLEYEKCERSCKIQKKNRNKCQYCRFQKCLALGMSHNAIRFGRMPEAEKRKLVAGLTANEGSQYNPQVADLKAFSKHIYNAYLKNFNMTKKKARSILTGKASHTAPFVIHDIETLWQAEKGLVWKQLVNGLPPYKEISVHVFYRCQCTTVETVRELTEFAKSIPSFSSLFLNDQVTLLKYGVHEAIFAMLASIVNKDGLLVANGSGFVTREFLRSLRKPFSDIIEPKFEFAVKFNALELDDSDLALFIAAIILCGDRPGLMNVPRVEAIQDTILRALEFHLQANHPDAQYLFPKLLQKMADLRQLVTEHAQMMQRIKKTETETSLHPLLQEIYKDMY
Summary of the method: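 Screen format: qHTS, antagonist mode. HEK293H PPARd-bla cells received compound and 300 nM L165041 (final), 17 h, 37 C. Beta-lactamase detected via FRET substrate fluorescence, 2 h, room temperature.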

[6] = qHTS assay for small molecule agonists of the antioxidant response element (ARE) signaling pathway - cell viability counter screen (AID 743203; calls by dose curve; further: nearly all actives have a fitted effect of over 55% in size); conditions: ARE-bla HepG2 viability, CellTiter-Glo luminescence, 16 h; viability change, negative = cytotoxic: at 73.3 µM (top of the series)
Summary of the method: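 Parallel cytotoxicity read-out for the ARE-bla screen: HepG2 reporter cells, 16 hrs with compounds, then CellTiter-Glo luminescence.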

[7] = qHTS assay to identify small molecule agonists of the peroxisome proliferator-activated receptor delta (PPARd) signaling pathway - cell viability counter screen (AID 743211); conditions: PPARd-bla HEK293H viability, CellTiter-Glo luminescence, 17 h; activity change, negative = cytotoxicity: at 62.6 µM (top of the series); further: nearly all actives have a fitted effect of over 55% in size
Summary of the method: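 Multiplexed format: after the 2 h room-temperature LiveBLAzer B/G FRET step, CellTiter-Glo was added to the same wells. Luminescence after 30 min gave cell viability; compound exposure was 17 h at 37C.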

[8] = qHTS assay for small molecule activators of the heat shock response signaling pathway (AID 743210; active means well fitted activation curve with a large enough effect in the signal ratio in the repeat runs, with a control signal flat, not every such curve was filed as active; inconclusive means weak or mixed curves; the % refers to the signal ratio;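 on activation: HeLa cells with beta-lactamase reporter driven by heat shock elements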); conditions: HeLa HSE-bla reporter, beta-lactamase ratio, 5 h; activation: at 62.6 µM (top of the series) unless noted
Summary of the method: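 Beta-lactamase reporter read-out: FRET substrate fluorescence after 2.5 h at RT, following 5 h compound treatment at 37 C of HeLa cells carrying HSE-driven bla reporter; quantitative HTS format.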

[9] = molecular target: Peroxisome proliferator-activated receptor delta (Homo sapiens) (UniProt Q03181); assay: qHTS assay to identify small molecule agonists of the peroxisome proliferator-activated receptor delta (PPARd) signaling pathway (AID 743212; calls by dose curve); conditions: HEK293H PPARd-UAS-bla, beta-lactamase FRET ratio, 17 h
Summary of the method: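 Read-out: beta-lactamase FRET fluorescence after 2 h room-temperature incubation with LiveBLAzer B/G substrate. Cells were HEK293H carrying a UAS-bla reporter for PPARd, treated at 37 C with DMSO-dissolved compounds.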

[10] = activation: at 62.6 µM (top of the series) unless noted
On the % scale 0 is the no-effect control and ±100 the full control effect; potency means the concentration at half of the fitted maximal effect; tags describe the fitted curve by direction and shape or compound fluorescence and quenching.

CCCCCCCCCCCCn1cc[n+](C)c1
Potency [1]: inconclusive: 12.4 µM [cytotoxic, full curve] | Potency [2]: inconclusive: 54.9 µM [cytotoxic, partial curve, poor fit] and inconclusive: 19.7 µM [cytotoxic, partial curve, poor fit]

O=[N+]([O-])C(Br)(CO)CO
Potency [3]: inconclusive: 27.3 µM | Potency [4]: inactive

Nc1c(Cl)c(Cl)nc(C(=O)O)c1Cl
Potency [3]: inconclusive: 60.5 µM [rising, partial curve] | ratio activity, negative = inhibition [5]: inconclusive: 3.5%

CN=CNc1ccc(C)cc1C
Potency [3]: inconclusive: 27.3 µM [rising, partial curve, poor fit] | ratio activity, negative = inhibition [5]: inconclusive: 4.73%

Cc1cc(-c2ccc(N)c(C)c2)ccc1N
Potency [6]: inactive

C=CC(N)=O
activation [3]: inconclusive: 12.5% | Potency [5]: inactive

Brc1ccc(Oc2ccc(Br)cc2Br)c(Br)c1
Potency [6]: inconclusive: 43.3 µM [cytotoxic, partial curve, poor fit] | activity change, negative = cytotoxicity [1]: inconclusive: -10.4% | Potency [7]: active: 43.7 µM | activity change, negative = inhibition [4]: inconclusive: -34.4%

COC(=O)c1ccccc1N
Potency [3]: inactive | Potency [2]: inconclusive: 21.1 µM [rising, partial curve, poor fit]

C=CCN1C[C@H](C)N([C@H](c2ccc(C(=O)N(CC)CC)cc2)c2cccc(OC)c2)C[C@H]1C
Potency [3]: inconclusive: 33.5 µM [rising, single point] | Potency [4]: inconclusive: 15 µM [rising, full curve]

CN(C)C(=S)S
Potency [6]: inconclusive: 271 nM [cytotoxic, full curve, poor fit] and inconclusive: 6.11 µM [cytotoxic, full curve] | Potency [1]: active: 5 µM and active: 2.19 µM | Potency [8]: inconclusive: 7.33 µM and inconclusive: 401 nM and inconclusive: 5.09 µM | Potency [7]: inconclusive: 25 µM [cytotoxic, partial curve, poor fit] and active: 546 nM and active: 5.49 µM

Cc1cc(Cl)ccc1OC(C)C(=O)O (stereo not drawn)
activation [3]: inconclusive: 9.87% | ratio activity, negative = inhibition [5]: inconclusive: 0.616%

Cc1ccccc1[N+](=O)[O-]
Potency [3]: inactive | Potency [2]: inconclusive: 0.176 µM [cytotoxic, full curve, poor fit]

CC(C)c1ccc(OP(=O)(Oc2ccc(C(C)C)cc2)Oc2ccc(C(C)C)cc2)cc1
Potency [1]: inconclusive: 49.3 µM [cytotoxic, partial curve, poor fit] and inconclusive: 38.9 µM [cytotoxic, partial curve, poor fit] | Potency [8]: inactive | Potency [7]: active: 27.7 µM and active: 43.7 µM and active: 27.5 µM | Potency [2]: inconclusive: 5.53 µM [cytotoxic, full curve] and inconclusive: 6.17 µM [cytotoxic, full curve, poor fit] and active: 4.89 µM

CCCCCCCCCCn1cc[n+](C)c1
Potency [6]: inconclusive: 24.6 µM [cytotoxic, partial curve, poor fit] and inconclusive: 70.4 µM [cytotoxic, partial curve, poor fit] | activity change, negative = cytotoxicity [1]: inconclusive: -46.5% [cytotoxic] [at 81.1 µM] | Potency [8]: inconclusive: 59.9 µM [activator] | Potency [7]: inconclusive: 5.51 µM [cytotoxic, partial curve] and inconclusive: 4.89 µM [cytotoxic, partial curve] and inconclusive: 976 nM [cytotoxic, partial curve]

CC(C)(C)c1cc(O)ccc1O
Potency [6]: inconclusive: 7.7 µM [rising, partial curve, poor fit] and inconclusive: 15.4 µM [rising, partial curve, poor fit] | Potency [8]: inconclusive: 61.6 µM [activator, partial curve, poor fit] | Potency [7]: inconclusive: 54.9 µM [cytotoxic, single point] and inconclusive: 61.6 µM [cytotoxic, single point] | activation [9, 10]: inconclusive: -16.4% | Potency [2]: inconclusive: 49 µM [cytotoxic, partial curve, poor fit] and inconclusive: 49 µM [cytotoxic, single point]

Oc1ccc(Cc2ccc(O)cc2)cc1
Potency [3]: active: 27.5 µM | Potency [2]: inconclusive: 2.2 µM [cytotoxic, full curve, poor fit]

O=[N+]([O-])c1ccccc1
Potency [3]: inactive | Potency [5]: inactive

CCN(CC)C(=S)S
Potency [1]: active: 6.98 µM and active: 2.75 µM | Potency [7]: active: 13.9 µM and active: 3.87 µM and active: 4.9 µM | Potency [2]: active: 6.13 µM and active: 3.47 µM

CCCCOC(=O)c1ccccc1C(=O)OCc1ccccc1
Potency [1]: inconclusive: 0.0019 µM [cytotoxic, full curve, poor fit] | Potency [8]: inconclusive: 18.8 µM [activator] | activation [9, 10]: inconclusive: -6.45% [phenotype inactive] | activation ([9]; at 62.6 µM (top of the series)): inactive: -4.8% | Potency [2]: inconclusive: 24.5 µM [cytotoxic, single point] and inconclusive: 4.9 µM [cytotoxic, full curve, poor fit]

CC(C)(c1ccccc1)c1ccc(O)cc1
Potency [6]: inconclusive: 43.3 µM [cytotoxic, partial curve] | Potency [1]: inconclusive: 54.9 µM [cytotoxic] | Potency [7]: inconclusive: 54.9 µM [cytotoxic, single point] | viability change, negative = cytotoxic [2]: inconclusive: -36.9% [cytotoxic] | ratio activity, negative = inhibition [5]: inconclusive: -61.8% [inhibitor] and inconclusive: -28.1% | activity change, negative = inhibition [4]: inconclusive: -23.6%

CC(C)=CCOc1c2occc2cc2ccc(=O)oc12
activation [3]: inconclusive: 25.1% | Potency [5]: inactive

COC1=CC(=O)O[C@@H](CCc2ccccc2)C1
activation [3]: inconclusive: 17.8% [at 94.8 µM] | Potency [5]: inactive

O=C([O-])c1ccccn1.O=C([O-])c1ccccn1.O=C([O-])c1ccccn1.[Cr+3]
Potency [8]: inactive

COP(=S)(NC(C)C)Oc1ccc(C)cc1[N+](=O)[O-] (stereo not drawn)
Potency [9, 10]: inactive

CCCCOCCOP(=O)(OCCOCCCC)OCCOCCCC
Potency [7]: inconclusive: 43.7 µM [cytotoxic, partial curve] and inconclusive: 12.3 µM [cytotoxic, full curve, poor fit] | activation [9, 10]: inconclusive: -8.64% | Potency [2]: inactive

O=NN1CCCCC1
Potency [5]: inactive

CC[C@H]1C[C@@H]2C[C@H]3c4[nH]c5ccc(OC)cc5c4CCN(C2)[C@@H]13
Potency [8]: active: 45.9 µM | Potency [9, 10]: inconclusive: 75.6 µM [rising, single point] | Potency [2]: inconclusive: 75.6 µM [cytotoxic, partial curve, poor fit] | Potency [5]: inconclusive: 60.1 µM

C=CC1(C)OC(=O)N(c2cc(Cl)cc(Cl)c2)C1=O (stereo not drawn)
Potency [8]: inconclusive: 23 µM [activator] | Potency [4]: inactive

O=C1c2ccccc2C(=O)c2ccccc21
Potency [7]: inactive | Potency [2]: inactive | Potency [5]: inactive

CCCCCCCC[N+](C)(CCCCCCCC)CCCCCCCC
Potency [8]: inconclusive: 17.3 µM [cytotoxic, full curve] and inconclusive: 9.42 µM and inconclusive: 29.7 µM | Potency [2]: active: 3.88 µM and active: 2.46 µM and active: 5.49 µM | Potency [4]: inconclusive: 24.5 µM [cytotoxic, full curve] and inconclusive: 21.9 µM and inconclusive: 61.6 µM [cytotoxic, single point]

CN(C)CCO
Potency [8]: inconclusive: 55.3 µM [activator, single point] | ratio activity, negative = inhibition [5]: inconclusive: -5.62% [at 80.4 µM]

CCCCC(CC)COC(=O)c1c(Br)c(Br)c(Br)c(Br)c1C(=O)OCC(CC)CCCC (stereo not drawn)
Potency [2]: inactive

CCCCCCCCCCCCCCCCn1cc[n+](C)c1
Potency [8]: inconclusive: 58.3 µM and inconclusive: 55.4 µM [cytotoxic] and inconclusive: 32.2 µM [cytotoxic]

CN1CCc2cc(Cl)c(O)cc2[C@H]2c3ccccc3CC[C@@H]21
Potency [8]: inactive | Potency [7]: inconclusive: 29.8 µM [cytotoxic] | Potency [2]: inconclusive: 4.22 µM [cytotoxic, partial curve, poor fit] | Potency [4]: inconclusive: 26.6 µM [inhibitor, partial curve, poor fit]

Nc1ccc(-c2ccc(N)c(N)c2)cc1N
Potency [8]: inconclusive: 20.6 µM and inconclusive: 46.2 µM [activator] | Potency [2]: inconclusive: 435 nM [cytotoxic, full curve, poor fit] and inconclusive: 15.5 µM [cytotoxic, partial curve, poor fit] | Potency [5]: inconclusive: 38.8 µM [inhibitor, partial curve, poor fit] | ratio activity, negative = inhibition [5]: inconclusive: -15.8%

CC(C)Oc1cc(-n2nc(C(C)(C)C)oc2=O)c(Cl)cc1Cl
Potency [7]: inconclusive: 54.2 µM [cytotoxic] | Potency [2]: active: 27.5 µM | Potency [5]: inconclusive: 17.4 µM [inhibitor, full curve, poor fit] | Potency [4]: inconclusive: 13.8 µM [rising, full curve, poor fit] | activity change, negative = inhibition [4]: inconclusive: -35.8%

Oc1cccc(Cl)c1
Potency [2]: inconclusive: 10.8 µM [cytotoxic, full curve, poor fit]
